Laboratory results published in patent publication US10344037B2, “Use of the FL-one hundred eighteen core chemical structure platform to generate FL-one hundred eighteen derivatives for treatment of human disease” (priority 2014, dated 2019).

Key:
[1] = test system: HCT-8 cells; experiment: Senescence-associated β-gal assay; type: cell-based, human; settings: 10 nM FL118
Text: The cells are stained for SA-b-gal activity. C.
Then the cells were fixed and stained for SA-β-gal activity with a commercial kit performed according to manufacturer's instructions (Calbiochem, catalog no QIA117).

[2] = test system: ABCG2 in HCT116-A2 cells; type: cell-based, human; settings: 72 hours, Ko143 1 μM
Method: Cell numbers are then counted at each drug concentration used. […] Cell numbers at each dot is the mean±SD derived from 3 independent assays. Data are plotted graphically and EC50 values are calculated using GraphPad Prism 6.0.
ABCG2 positive HCT116-derived colon cancer cells (HCT116-A2) grown at sub-confluence are treated with a series of concentrations of topotecan in triplicate for 72 hours in the presence or absence of Ko143 at 1 μM concentrations as shown. Cell numbers are then counted at each topotecan concentration used. […] Cell numbers at each dot is the mean±SD derived from 3 independent assays. Data are plotted graphically and EC50 values and R-values are calculated using GraphPad Prism 6.0.
Clinically, development of resistance to irinotecan and topotecan occurs commonly during treatment, often involving the upregulation of ABCG2. By increasing the rate of drug export, ABCG2 decreases the amount of SN-38, irinotecan or topotecan that accumulates intracellularly, thereby protecting cancer cells from the cytotoxic effects of these chemotherapeutic drugs.

[3] = test system: p21, DHFR, HTR and TK gene promoters; experiment: Control gene promoter activity; type: cell-based, human; settings: FL118 at 10 nM
[4] = test system: HdmX
[5] = test system: HCT116-C4 cells; type: cell-based, human
[6] = test system: SW620 tumor; experiment: Oral FL118 in SW620 xenograft
[7] = test system: survivin; experiment: Western blot for survivin expression in FaDu cells; type: cell-based, human; settings: 24 hours
[8] = test system: survivin, Mcl-1, XIAP, cIAP2; type: cell-based, human
[9] = test system: HCT116 and HCT-8 colon cancer cells; experiment: Combination of FL118 with curcumin: cell death ELISA, MTT and combination index; type: cell-based, human; settings: 48 hours
Method: Cell images are taken under microscopy with digital camera (A) or subject to cell death ELISA (DNA fragmentation) analysis (B). Each bar shown in B is the mean±SD from three independent assays.
Effects of Drug A and Drug B combination on growth inhibition are analyzed by the Combination Index (CI) equation developed by Chou-Talalay (Chou T C and Talalay P. Quantitative analysis of dose-effect relationships: the combined effects of multiple drugs or enzyme inhibitors. Adv Enzyme Regul 1984; 22: 27-55) using a CalcuSyn program (Biosoft, Cambridge, UK). […] The (Dx)1 and (Dx)2 can be readily calculated from the Meridian-effect equation of Chou (Chou T C. Preclinical versus clinical drug combination studies. Leuk Lymphoma 2008; 49: 2059-2080): Dx=Dm[fa/(1−fa)]^1/m where Dx is the median-effect dose, fa is the fraction affected, Dm is the median-effect dose signifying potency and m is the kinetic order signifying the shape of dose-effect curve. A 3-D plot of CI versus concentrations of both Drug A and Drug B is obtained for each treated cell line as descried before (Soriano A F, et al., Synergistic effects of new chemopreventive agents and conventional cytotoxic agents against human lung cancer cell lines. Cancer Res 1999; 59: 6178-6184).

[10] = test system: RC0.1 (DU145-RC0.1) cells; experiment: Cell growth inhibition, DU145 sub-line with Top1 mutation; type: cell-based, human
Text: (§1) Each dot is the mean±SD derived from 3 independent assays.
(§2) Irinotecan and topotecan are the only two analogs derived from direct modification of camptothecin (CPT) that are approved by the FDA for cancer treatment in clinical practice. […] In this regard, we obtain one DU145 parental prostate cancer cell line and two DU145-derived sub-lines with Top1 mutations (DU145-RC0.1, DU145-RC1).

[11] = test system: RC1 (DU145-RC1) cells; experiment: as above; type: cell-based, human
Text: as §1, §2

[12] = test system: Hdm2-mediated p53 ubiquitination; experiment: In vivo (in cell) p53 ubiquitination assay in HCT-8 cells; settings: 10 and 100 nM FL118, MG132

CC[C@@]1(O)C(=O)OCc2c1cc1n(c2=O)Cc2cc3cc4c(cc3nc2-1)OCO4 [FL118]
senescence (SA-β-gal positivity) [1]: induces p53-dependent senescence
effect of ABCG2 inhibitor Ko143 on potency [2]: Ko143 does not modulate the potency of FL118
promoter activity of p21, DHFR, HTR and TK genes [3]: no inhibitory effects
dependence of FL118-induced HdmX degradation on p53 or p21 ([4]; HCT116-p21-null or HCT116-p53-null cells, 10 and 100 nM, 24 h): not affected by p53 or p21 status
dependence of FL118-induced HdmX degradation on ATM ([4]; HCT-8 cells, 100 nM, with ATM inhibitor KU55933 10 μM): ATM-independent process
dependence of FL118-induced HdmX degradation on Hdm2 ([4]; p53/mdm2/mdmx triple knockout (TKO) MEF cells transfected with HA-HdmX with or without Hdm2): presence of Hdm2 in HdmX-co-transfected cells is required
IC50 [5]: 0.152 nM
RP ([5]; IC50 of topotecan divided by IC50 of the drug): 564.1
lowest dose showing efficacy ([6]; q7d×4): ≤ 0.625 mg/kg
SW620 tumor growth ([6]; q7d×4, versus saline or vehicle control): significant inhibition of SW620 tumor growth
survivin expression [7]: inhibits survivin expression
more effective than topotecan (irinotecan and topotecan) in inhibition of survivin, Mcl-1, XIAP, cIAP2 [8]: at least 10 time
cancer cell death in combination with curcumin [9]: curcumin enhances FL118 anti-cancer efficacy to induce colon cancer cell death
IC50 ([10]; RC0.1): 78.7 nM
more effective than CPT, SN-38 and topotecan ([10]; Top1 mutated RC0.1 and RC1 cell lines): up to 800 folds
IC50 [11]: 102 nM
p53 ubiquitination in cells [12]: inhibits Hdm2-mediated p53 ubiquitination in cells
